Hit rate of the full screen: of about 410,000 compounds, about 7,200 (1.8%) were called active. The shares of active, inactive and inconclusive entries below differ from those in the screen. Calls follow the shape of the dose curve; as a rule, active = well fitted activation curve with a large enough effect; inconclusive = small, poorly fitted or top-dose-only effect, or another doubt; inactive = no such curve, though single readings can be large or run the other way. Potencies of inconclusive entries are left out as doubtful fits.
Assay: qHTS of TDP-43 Inhibitors; also: nearly all actives have a fitted effect of over 50% in size; as to growth rescue (activation): % of control where 0% means no effect
Conditions: TDP-43 expressing yeast growth rescue, BacTiter-Glo, 24 h; growth rescue (activation): at 46.1 µM (top of the series) unless noted
Summary of the method: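 Luminescence from BacTiter-Glo reports growth of TDP-43-expressing yeast after 24 hr at 30 deg C with compound. Cells were raffinose-pregrown to mid-log, then seeded in galactose medium at OD600=0.02.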
Potency is read from the fitted curve at half-maximal effect; tags tell the direction and shape of the fitted curve.

| Structure (SMILES) | growth rescue (activation) | Potency |
| --- | --- | --- |
| COc1cc(C(=O)Nc2ccc(-c3nc4cc(C)ccc4o3)c(O)c2)cc(OC)c1OC | inactive: -8.32% | – |
| COc1cccc(C(=O)Nc2cc(C(F)(F)F)ccc2Cl)c1 | – | inconclusive [activator, single point] |
| COc1ccc(C(=O)Nc2ccc3ccccc3n2)cc1OC | – | inconclusive [activator, partial curve] |
| CC(C)(C)C(=O)NCC12C=CC(O1)C1C(=O)N(c3ccccc3)C(=O)C12 (stereo not drawn) | inconclusive: -93.7% [activator] | – |
| COC(=O)[C@@]1(Cc2ccccc2)[C@H]2C(=O)N(Cc3ccccc3)C(=O)[C@H]2[C@H]2CN=C(SCC(=O)c3ccccc3)N21 | – | inconclusive [activator, partial curve] |
| CCOC(=O)c1ccc(NC(=O)CCc2nc(-c3ccccc3)no2)cc1 | – | inconclusive [activator, single point] |
| Cc1ccsc1C(=O)OCC(=O)c1ccc[nH]1 | inactive: 12% | – |
| Clc1nnc(NC2CCCCC2)c(Cl)c1Cl | – | active: 22.4 µM |
| COc1ccc(Cn2c(C(=O)O)c(CNCc3ccc(SC)cc3)c3ccc(OC)cc32)cc1 | inactive: 4% | – |
| COc1ccccc1C(=O)N1CCN(c2cccc(C(F)(F)F)c2)CC1 | – | active: 14.1 µM |
| O=C(Nc1ccccc1N1CCOCC1)c1ccc([N+](=O)[O-])cc1 | inconclusive: 30.2% [activator] | – |
| FC(F)(F)c1ccccc1/C=N/n1c(C2CCCCC2)n[nH]c1=S | – | inconclusive [activator, single point] |
| Cc1ccc(-c2ccc(CN3C(C(C)C)C(=O)N(Cc4cn(CCC5OCCO5)nn4)CCS3(=O)=O)cc2)c(C)c1 (stereo not drawn) | – | inconclusive [activator, single point] |
| CCc1cccc(CC)c1NC(=O)NC1CCCCC1 | inactive: 12.1% | – |
| CCc1cc(-c2nnn(CCC3COCCO3)c2CC)ccc1-c1cn(Cc2ccccc2)nn1 (stereo not drawn) | – | inconclusive [activator, single point] |
| Clc1ccc(Nc2ccc(Cl)nn2)cc1 | – | inconclusive [activator, single point] |
| CC(C)Cc1nc(SCC(=O)N2CC(C)OC(C)C2)c2c(=O)n(C)c(=O)n(C)c2n1 (stereo not drawn) | – | inconclusive [activator, partial curve, poor fit] |
| COc1cc(OC)cc(C(=O)O/N=C(\N)c2ccccn2)c1 | – | inconclusive [activator, single point] |
| COc1cc(C#Cc2c(-c3cncn3C)n(C)c3ccc(-c4ccc(CN5CCOCC5)cc4)cc23)cc(OC)c1 | – | inconclusive [activator, partial curve] |
| Fc1ccccc1CSc1nnc(-c2ccccc2)o1 | – | active: 11.2 µM |
| O=C1Nc2ccccc2-n2nnnc2C1N1CCN(CCN2CCOCC2)CC1 (stereo not drawn) | inactive: 20.6% | – |
| O=[N+]([O-])c1ccc(Nc2ccc(Cl)cc2)nc1 | – | inconclusive [activator, partial curve] |
| C=CCn1c(SCc2ccc(C#N)cc2)nnc1-c1cccc(Cl)c1 | – | active: 14.1 µM |

| Structure (SMILES) | growth rescue (activation) | Potency |
| --- | --- | --- |
| Cc1ccc(Nc2c([N+](=O)[O-])c(=O)n(C)c3ccccc23)cc1C | – | inconclusive [activator, single point] |
| O=C(NCCNc1ccc([N+](=O)[O-])cc1C(F)(F)F)c1cccc(F)c1 | – | inconclusive [activator, single point] |
| COc1cc([N+](=O)[O-])c(N2CCOCC2)c([N+](=O)[O-])c1OC | – | inconclusive [activator, partial curve] |
| COc1ccc2ccc(OCC(=O)NCC3CCCO3)cc2c1 (stereo not drawn) | – | inconclusive [activator, single point] |
| CC(=O)c1cnc2nc(SCc3cccc(C)c3)nn2c1C | – | inconclusive [activator, single point] |
| CN(CC(=O)Nc1cccc(F)c1)C(=O)c1ccccc1OCCOc1ccccc1 | inconclusive: 36.5% [activator] | – |
| Cc1cccc(-n2cc[nH]c2=S)c1C | – | inconclusive [activator, single point] |
| CCN(Cc1ccccc1)C(=O)c1oc2ccc(C)cc2c1C | – | inconclusive [activator, partial curve] |
| COc1cccc(N2CCN(C3CC(=O)N(c4ccc(Cl)c(Cl)c4)C3=O)CC2)c1 (stereo not drawn) | – | inconclusive [activator, single point] |
| COc1ccc(N2C(=O)c3ccccc3C(C)(C)C2=O)cc1 | – | inconclusive [activator, single point] |
| O=C(O)CCc1nc(-c2ccc(Cl)cc2)no1 | – | active: 14.1 µM |
| Cc1ccc(N2C(=O)N(CC(=O)c3cc(C)ccc3C)C(=O)C2C)cc1 (stereo not drawn) | – | inconclusive [activator, partial curve, poor fit] |
| CNC(=O)c1ccc2c(c1)N(Cc1ccccc1Cl)C(=O)c1ccccc1S2 | – | inconclusive [activator, partial curve, poor fit] |
| CCNC(=O)O/N=C1\CCCCC1c1ccc([N+](=O)[O-])cc1[N+](=O)[O-] (stereo not drawn) | – | active: 14.1 µM |
| Cc1nn(-c2ccc(F)cc2)c2sc(C(=O)O)cc12 | – | inconclusive [activator, single point] |
| Cc1ccc(Nc2ccc(C(=O)O)cc2N)cc1 | – | inconclusive [activator, single point] |
| O=C(Cn1c(=O)nc(-c2ccccc2F)c2cc(Cl)ccc21)NCCCc1ccccc1 | inactive: 17.8% | – |
| Cc1cccc(NC(=O)c2sc3nc(-c4cc5ccc(O)cc5oc4=O)[nH]c(=O)c3c2C)c1 | inactive: -23.7% | – |
| CCOC(=O)c1cccc(NC(=O)COc2ccc([N+](=O)[O-])cc2)c1 | – | inconclusive [activator, single point] |
| COc1ccccc1C1CCN(C(=O)c2cnn(-c3ccccc3)c2C)CC1 | – | inconclusive [activator, single point] |
| O=C(Nc1nc(-c2ccccc2)cs1)c1cccs1 | – | active: 12.6 µM |
| CCOC(=O)n1c(=O)n(Cc2ccc(F)cc2)c2ccccc21 | – | inconclusive [activator, single point] |
| Cc1nnc(N/N=C/c2cc(C)n(-c3ccc(F)cc3)c2C)n1N | – | inconclusive [activator, partial curve] |

| Structure (SMILES) | growth rescue (activation) | Potency |
| --- | --- | --- |
| Cn1c(SCC(=O)N2CCCc3ccccc32)nnc1-c1c[nH]c2ccccc12 | inactive: 9.05% | – |
| N#Cc1ccc(NC(=S)/N=C(\N)c2ccccc2)cc1 | – | active: 11.2 µM |
| COC(=O)[C@@]1(Cc2ccc(OC)cc2)[C@H]2c3cc(C(=O)N4CCCC4)n(Cc4ccc(OC(F)(F)F)cc4)c3C[C@H]2CN1C(=O)c1ccccc1 | – | inconclusive [activator, full curve] |
| CSc1oc(-c2cccs2)nc1S(=O)(=O)c1ccc(Br)cc1 | inactive: 14.7% | – |
| CC(C)Cc1ccc(C(C)C(=O)Nc2ccc(O)cc2)cc1 (stereo not drawn) | – | active: 11.2 µM |
| CCC(CC)C(=O)N(C)c1c(C)nc2c(OCC3CCCCC3)cccn12 | – | inconclusive [activator, full curve, poor fit] |
| CCC1CN(C(=O)N2CCC(C(=O)N3CCN(c4ccccc4F)CC3)CC2)c2ccccc2O1 (stereo not drawn) | – | inconclusive [activator, single point] |
| O=C(NCc1ccccn1)C(=O)Nc1nc(C23CC4CC(CC(C4)C2)C3)cs1 | – | inconclusive [activator, single point] |
| COc1ccc2c(c1)c(CC(=O)OCC(=O)O)c(C)n2C(=O)c1ccc(Cl)cc1 | – | inconclusive [activator, partial curve] |
| COc1ccc(C(=O)Nc2ccc(S(=O)(=O)Nc3nccnc3OC)cc2)cc1 | – | active: 0.316 µM |
| CCOC(=O)Cc1csc(SCC(=O)Nc2ccc(C)cc2F)n1 | inactive: 14.9% | – |
| Cc1ccc2c(c1)c1c3n2CCN(C(=O)c2cccc(C(F)(F)F)c2)C3CCC1 (stereo not drawn) | inactive: 14.9% | – |
| O=c1c2c(-c3cccs3)csc2ncn1-c1ccc(Br)cc1 | – | inconclusive [activator, partial curve] |
| CCc1ccccc1NC1Nc2cc(C)nn2S1 (stereo not drawn) | – | inconclusive [activator, partial curve] |
| Cc1cccc(CNC(=O)CCCN2C(=O)CCn3nc(-c4cccn4C)cc32)c1 | – | inconclusive [activator, partial curve] |
| CC(C)(C)c1cc(S(=O)(=O)CCc2ccccn2)cc(C(C)(C)C)c1F | – | inconclusive [activator, single point] |
| Cc1ccc(C)c(SCC(=O)Nc2cccnc2Cl)c1 | – | inconclusive [activator, partial curve] |
| CCC(Sc1nnc(-c2ccc(OC)c(OC)c2)c(-c2ccc(OC)c(OC)c2)n1)C(=O)NC1CCCC1 (stereo not drawn) | inactive: 4.81% | – |
| Cc1cc(C(=O)NCc2ccc3c(c2)OCO3)n(-c2ccccc2)n1 | – | inconclusive [activator, partial curve] |
| COc1ccc(C(=O)Nc2nc3ccccc3n2CCOc2ccc(Cl)cc2)cc1 | – | inconclusive [activator, partial curve] |
| Oc1ccc(N2CCN(c3nc(-c4cccs4)nc4ccccc34)CC2)cc1 | – | inconclusive [activator, single point] |
| COc1ccc([C@H]2CC(=O)C=C(c3ccc4ncccc4c3)C2)cc1OC | – | inconclusive [activator, partial curve] |

Reference: PubChem BioAssay AID652104 (National Center for Advancing Translational Sciences (NCATS), 2013)
